Target: T1, wild type human MIC-1 (human, UniProt Q99988 197-308)
T1 construct: also called wtMIC-1; hMIC-1
T1 sequence: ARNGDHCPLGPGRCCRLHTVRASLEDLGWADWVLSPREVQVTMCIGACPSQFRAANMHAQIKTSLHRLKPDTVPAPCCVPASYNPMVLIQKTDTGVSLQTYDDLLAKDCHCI
Assay: SPR, Biacore 4000; hRet(ECR)-Fc immobilised through Fc
Method: hRet and complex of hGFRAL and MIC-1 interactions were assessed by SPR-based binding assay. A Biacore® 4000 (GE Healthcare, Piscataway, N.J., USA) instrument was used. The assays were performed at 25° C. at flow rates of 30 μL/minute in 1× HBS-P running buffer (BR-1006-71, GE Healthcare, Piscataway, N.J., USA). hRet(ECR)-Fc was immobilized through Fc as ligand on the chip. VISTA-Fc was immobilized as negative control ligand. The complex of MIC-1 and hGFRAL was prepared by pre-incubating wtMIC-1 with hGFRAL(ECR)-His. wtMIC-1, hGFRAL(ECR)-His, complex of wtMIC-1 and Ctrl-His, and complex of wtMIC-1 and hGFRAL(ECR)-His at various concentration were run as flow-through analyte.
Thus, it can be concluded that that hRet binds to hGFRAL in the presence of MIC-1; and Ret, MIC-1 and GFRAL forms a ternary complex.

B1: hRET(ECR)-hIgG1.1_Fc (Fc fusion)
chain: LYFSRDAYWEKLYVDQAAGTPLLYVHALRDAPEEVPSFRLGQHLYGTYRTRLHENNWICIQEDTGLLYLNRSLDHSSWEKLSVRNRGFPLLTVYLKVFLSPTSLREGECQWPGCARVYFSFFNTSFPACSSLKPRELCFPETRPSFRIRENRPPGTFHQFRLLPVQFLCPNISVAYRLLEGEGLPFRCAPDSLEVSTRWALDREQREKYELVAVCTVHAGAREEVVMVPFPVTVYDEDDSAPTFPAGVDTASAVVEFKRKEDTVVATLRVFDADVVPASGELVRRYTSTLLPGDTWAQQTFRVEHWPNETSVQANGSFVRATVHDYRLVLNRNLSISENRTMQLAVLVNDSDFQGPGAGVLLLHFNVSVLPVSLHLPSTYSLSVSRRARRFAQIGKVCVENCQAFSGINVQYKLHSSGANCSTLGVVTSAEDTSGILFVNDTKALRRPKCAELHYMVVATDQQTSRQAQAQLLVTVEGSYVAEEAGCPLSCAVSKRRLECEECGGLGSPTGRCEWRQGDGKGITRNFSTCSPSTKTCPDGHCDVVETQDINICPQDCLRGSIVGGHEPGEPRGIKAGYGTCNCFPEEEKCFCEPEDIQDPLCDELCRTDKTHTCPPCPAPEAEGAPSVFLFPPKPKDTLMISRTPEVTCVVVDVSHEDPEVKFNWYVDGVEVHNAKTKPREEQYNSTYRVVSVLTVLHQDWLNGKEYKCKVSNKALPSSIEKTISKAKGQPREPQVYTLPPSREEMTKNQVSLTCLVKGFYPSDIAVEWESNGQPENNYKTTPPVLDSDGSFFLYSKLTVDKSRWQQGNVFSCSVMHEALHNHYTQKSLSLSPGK
notes: also called hRET(ECR)-Fc; hRet(ECR)-Fc
Does B1 bind?
Result: no binding (tested: 1000 nM)
